# According to the supplement of paper PMC12217912:
# Some of the results follow. The full chains were built here from the parent and the listed change. Inactive controls read about 0.05.
# B1: TEV protease; numbered along this chain (parent)
# chain: MGESLFKGPRDYNPISSSICHLTNESDGHTTSLYGIGFGPFIITNKHLFRRNNGTLVVQSLHGVFKVKDTTTLQQHLVDGRDMIIIRMPKDFPPFPQKLKFREPQREERICLVTTNFQTKSMSSMVSDTSCTFPSGDGIFWKHWIQTKDGQCGSPLVSTRDGFIVGIHSASNFTNTNNYFTSVPKNFMELLTNQEAQQWVSGWRLNADSVLWGGHKVFMVKPEEPFQPVKEATQL
# Variants of: B1
# Experiment: raw area under fraction-flipped curve 0-4 h after induction (AUC4h, not background-subtracted), DNA-recorder readout of cleavage of the substrate (dimensionless); higher = more cleavage of the substrate by the protease variant
# Settings: temperature: 34 °C; time window: 0-4 h after rhamnose induction
# Procedure: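 In vivo DNA recorder in E. coli TOP10(DE3) ΔrhaA at 34 °C. Each TEVp single-site mutant (parent TEVp 0) is paired with a single-site variant of the 7-mer TEVs (canonical ENLYFQ|S). The substrate sits between flexible linkers in a Bxb1-sfGFP-TEVs-SsrA fusion, so cleavage stabilises Bxb1 and speeds flipping of a recombination array, read by NGS. The value is the raw area under the fraction-flipped curve over 0-4 h after rhamnose induction (AUC4h), with ≥20 reads per time point. It is not background-subtracted; inactive controls average about 0.047.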
# 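Further: Bxb1 expression induced with 0.2% (w/v) L-rhamnose at OD600 near 0.5, cultures sampled hourly, flipped fraction per protease–substrate barcode pair counted by paired-end Illumina sequencing.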
Variant,area with substrate ENLAFQS,area with substrate ENLCFQS,area with substrate ENLDFQS,area with substrate ENLEFQS,area with substrate ENLFFQS,area with substrate ENLGFQS,area with substrate ENLHFQS,area with substrate ENLIFQS,area with substrate ENLKFQS,area with substrate ENLLFQS,area with substrate ENLQFQS,area with substrate ENLRFQS,area with substrate ENLWFQS,area with substrate ENLMFQS,area with substrate ENLNFQS,area with substrate ENLPFQS,area with substrate ENLSFQS,area with substrate ENLVFQS,area with substrate ENLTFQS
F95Y,0.0392,0.0713,0.0459,0.0597,0.0637,0.063,0.0809,0.0876,0.0936,0.0767,0.1,0.0804,0.0444,,,,,,
R81H,0.0545,0.0518,0.0687,0.0591,0.108,0.0659,0.0615,0.0682,0.0722,0.0587,0.0626,0.0686,,0.0804,0.0652,0.0727,0.0605,,
F117V,0.0581,0.0865,0.053,0.0558,0.0898,0.0731,0.0342,,,0.0663,0.0709,0.0764,0.071,0.0765,,0.0773,0.0602,0.0571,
P96H,0.069,0.0741,0.0823,0.0682,0.0705,,0.0678,0.0618,0.0783,0.0634,,0.0744,,,0.0357,0.0439,0.0802,,
P96Q,0.077,,0.0819,0.0525,0.0932,,0.0664,,0.0753,0.0598,0.0557,,0.0605,,0.0636,,0.0672,,
P134Y,0.0813,0.0676,0.0547,0.0535,0.0734,0.0589,0.065,0.071,,0.0577,0.0588,0.0666,,,0.0661,0.0607,0.0621,0.0677,0.0622
P134C,0.0648,0.0783,0.069,0.0568,0.082,0.0584,0.071,,0.0682,0.0636,0.0664,0.0766,0.0531,0.0588,0.0667,0.0673,0.0633,,
F101N,0.0434,,0.0413,0.0445,0.0508,,0.0264,0.0477,,,,,0.031,0.0644,0.0522,0.0551,0.052,,
S123W,0.0659,0.0688,0.0623,0.0626,0.0897,0.0568,0.0699,0.081,0.0921,0.0791,0.0751,0.0663,0.0631,,0.0623,0.068,0.0711,,
T119M,0.0639,,0.0806,0.0598,0.0598,,,,,0.0851,,0.0703,,,0.0711,,,,
L112V,0.0366,,,0.0723,0.106,0.0728,0.0616,,0.0789,0.058,0.0676,0.0701,0.0638,,0.0676,0.0642,0.0599,0.0895,0.0596
L112A,0.0645,0.0682,0.0632,,0.07,0.0689,0.0559,0.0692,0.0695,0.057,,0.0682,0.0615,0.0623,0.0748,0.0517,0.0633,0.0728,0.0703
L112T,0.0522,0.0717,0.0739,0.0796,0.0637,0.0704,0.069,,0.0654,0.0729,0.0654,,,,0.0634,0.0603,0.0459,0.0695,
L112K,0.0633,0.0827,0.0608,0.05,0.0996,,0.0728,0.0937,,0.068,0.0721,0.0667,0.0656,0.0921,0.0609,0.0462,0.0641,0.0896,0.0746
K120T,0.0735,,,0.0592,0.0531,0.0525,0.0658,,,0.0551,0.0787,,0.0736,0.1,,0.0387,,,
K120I,0.0831,0.0499,0.0783,0.0643,0.0935,,,0.077,0.0804,,0.059,,0.0587,,,0.0374,0.0542,,
D149G,0.0625,0.0791,0.0571,0.0717,0.088,0.0592,0.0623,0.0858,0.0735,,0.075,0.0527,,0.0675,0.0593,0.0654,0.0594,0.0664,
W141S,0.041,0.0593,0.0445,,0.0569,,0.069,0.0437,,0.0584,,0.0691,0.0515,0.0447,0.056,0.0548,0.0389,,
W141H,0.0539,,0.059,0.0572,0.0666,0.0568,0.0516,0.0357,0.0695,,0.0846,0.0439,,0.0501,0.0756,0.0592,0.0554,,
P104H,0.0546,,0.0538,0.0572,0.0728,,0.0518,0.0413,0.0449,0.0883,0.0591,0.052,0.0616,,0.0497,,0.0595,,
P104A,0.0538,0.0621,0.0596,0.0958,0.104,,,0.0878,0.0689,0.0758,,,0.0779,0.0788,0.0701,,,,
P104N,0.0772,0.0459,0.0533,0.0514,0.0527,,0.0401,,0.0554,,0.0571,,0.0351,0.0637,0.0414,0.0462,,0.0442,
P104V,0.0644,,0.058,0.0551,0.066,,0.0657,0.0659,0.0717,0.0665,,,0.0564,0.0864,0.0648,0.0638,0.0408,0.121,0.0453
I110V,0.0606,0.0731,0.0546,0.0607,0.0947,,0.0651,0.123,0.0648,,0.0416,0.117,0.0622,0.0766,0.0663,,0.0533,0.0885,
R106K,0.0656,,,0.0595,,,0.0594,0.0848,,0.0796,,,,,,,,,
R106G,0.0706,,0.0751,,0.0685,0.0683,0.0653,,,0.0781,,,0.0576,,,0.066,0.0663,,
